# Laboratory results: the supplement of paper PMC8728848
# This is one part of the list.
# Key:
# Experiment in all cases: glycan array binding signal (z-score within array); higher = stronger binding
# Settings in all cases: glycan notation: IUPAC condensed, linker removed
# [1] = biological target: Man(a1-2)Man(a1-2)Man(a1-3)Man
# Procedure, shortened: (§1)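 The binding signal is a Z-score computed within each array. Data were drawn from 3228 arrays in the Consortium for Functional Glycomics database, restricted to those with a known protein sequence. Scores were averaged over arrays of the same protein sequence at different concentrations or buffers, and over linkers, and negative values can be taken as non-binding.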
# [2] = biological target: Man(a1-2)Man(a1-2)Man(a1-6)[Man(a1-3)]Man
# Procedure, shortened: as §1
# Man(a1-2)Man(a1-3)Man = biological target: Man(a1-2)Man(a1-3)Man
# Procedure, shortened: as §1
# [3] = biological target: Man(a1-2)Man(a1-3)[Man(a1-2)Man(a1-6)]Man
# Procedure, shortened: as §1
# [4] = biological target: Man(a1-2)Man(a1-3)[Man(a1-2)Man(a1-6)]Man(a1-6)[Man(a1-2)Man(a1-2)Man(a1-3)]Man(b1-4)GlcNAc(b1-4)GlcNAc
# Procedure, shortened: as §1
# [5] = biological target: Man(a1-2)Man(a1-3)[Man(a1-6)]Man(a1-6)[Man(a1-2)Man(a1-3)]Man(b1-4)GlcNAc(b1-4)GlcNAc
# Procedure, shortened: as §1
# [6] = biological target: Man(a1-2)Man(a1-6)[Man(a1-3)]Man(a1-6)[Man(a1-2)Man(a1-2)Man(a1-3)]Man(b1-4)GlcNAc(b1-4)GlcNAc
# Procedure, shortened: as §1
# Man(a1-3)[Man(a1-6)]Man = biological target: Man(a1-3)[Man(a1-6)]Man
# Procedure, shortened: as §1
# [7] = biological target: Man(a1-3)[Man(a1-6)]Man(a1-6)[Man(a1-2)Man(a1-3)]Man(b1-4)GlcNAc(b1-4)GlcNAc
# Procedure, shortened: as §1
# [8] = biological target: Man(a1-3)[Man(a1-6)]Man(a1-6)[Man(a1-3)]Man(b1-4)GlcNAc(b1-4)GlcNAc
# Procedure, shortened: as §1
# [9] = biological target: Man(a1-3)[Man(a1-6)]Man(b1-4)GlcNAc(b1-4)GlcNAc
# Procedure, shortened: as §1
# Man(b1-4)GlcNAc = biological target: Man(b1-4)GlcNAc
# Procedure, shortened: as §1
# Neu5Ac(a2-3)Gal = biological target: Neu5Ac(a2-3)Gal
# Procedure, shortened: as §1
# [10] = biological target: Neu5Ac(a2-3)Gal(b1-3)GalNAc
# Procedure, shortened: as §1
# [11] = biological target: Neu5Ac(a2-3)Gal(b1-3)GalNAc(b1-3)Gal(a1-4)Gal(b1-4)Glc
# Procedure, shortened: as §1
# [12] = biological target: Neu5Ac(a2-3)Gal(b1-3)GalNAc(b1-3)Gal(b1-4)GlcNAc
# Procedure, shortened: as §1
# [13] = biological target: Neu5Ac(a2-3)Gal(b1-3)GalNAc(b1-4)[Neu5Ac(a2-3)]Gal(b1-4)Glc
# Procedure, shortened: as §1
# [14] = biological target: Neu5Ac(a2-3)Gal(b1-3)GalNAc6S
# Procedure, shortened: as §1
# [15] = biological target: Neu5Ac(a2-3)Gal(b1-3)GlcNAc
# Procedure, shortened: as §1
# [16] = biological target: Neu5Ac(a2-3)Gal(b1-3)GlcNAc6S
# Procedure, shortened: as §1
# [17] = biological target: Neu5Ac(a2-3)Gal(b1-3)[Fuc(a1-4)]GlcNAc
# Procedure, shortened: as §1
# [18] = biological target: Neu5Ac(a2-3)Gal(b1-3)[Fuc(a1-4)]GlcNAc(b1-3)Gal(b1-4)[Fuc(a1-3)]GlcNAc
# Procedure, shortened: as §1
# [19] = biological target: Neu5Ac(a2-3)Gal(b1-3)[Neu5Ac(a2-3)Gal(b1-4)]GlcNAc
# Procedure, shortened: as §1
# [20] = biological target: Neu5Ac(a2-3)Gal(b1-3)[Neu5Ac(a2-6)]GalNAc
# Procedure, shortened: as §1
# Neu5Ac(a2-3)Gal(b1-4)Glc = biological target: Neu5Ac(a2-3)Gal(b1-4)Glc
# Procedure, shortened: as §1
# [21] = biological target: Neu5Ac(a2-3)Gal(b1-4)GlcNAc
# Procedure, shortened: as §1
# [22] = biological target: Neu5Ac(a2-3)Gal(b1-4)GlcNAc(b1-2)Man(a1-3)[Neu5Ac(a2-3)Gal(b1-4)GlcNAc(b1-2)Man(a1-6)]Man(b1-4)GlcNAc(b1-4)GlcNAc
# Procedure, shortened: as §1
# [23] = biological target: Neu5Ac(a2-3)Gal(b1-4)GlcNAc(b1-3)Gal(b1-4)GlcNAc
# Procedure, shortened: as §1
# [24] = biological target: Neu5Ac(a2-3)Gal(b1-4)GlcNAc(b1-3)Gal(b1-4)GlcNAc(b1-3)Gal(b1-4)GlcNAc
# Procedure, shortened: as §1
# [25] = biological target: Neu5Ac(a2-3)Gal(b1-4)GlcNAc(b1-3)Gal(b1-4)[Fuc(a1-3)]GlcNAc
# Procedure, shortened: as §1
# [26] = biological target: Neu5Ac(a2-3)Gal(b1-4)GlcNAc6S
# Procedure, shortened: as §1
# [27] = biological target: Neu5Ac(a2-3)Gal(b1-4)[Fuc(a1-3)]GlcNAc
# Procedure, shortened: as §1
# [28] = biological target: Neu5Ac(a2-3)Gal(b1-4)[Fuc(a1-3)]GlcNAc(b1-3)Gal
# Procedure, shortened: as §1
# [29] = biological target: Neu5Ac(a2-3)Gal(b1-4)[Fuc(a1-3)]GlcNAc(b1-3)Gal(b1-4)GlcNAc
# Procedure, shortened: as §1
binder,measurement,setting,value
"F17eG (Escherichia coli), Q9RH92 (protein) MTNFYKVFLAVFILVCCNISHAAVSFIGSTENDVGPSQSSYSRTHAMDNLPFVYNTGYNIGYQNANVWRISGGFCVGLDGKVDLPVVGSLDGQSIYGLTEEVGLLIWMGDTNYSRGTAMSGNSWENVFSGWCVGNYVSTQGLSVHVRPVILKRNSSAQYSVQKTSIGSIRMRPYNGSSAGSVQTTVNFSLNPFTLNDTVTSCRLLTPSAVNVSLAAISAGQLPSSGDEVVAGTTSLKLQCDAGVTVWATLTDATTPSNRSDILTLTGASTATGVGLRIYKNTDSTPLKFGPDSPVKGNENQWQLSTGTETSPSVRLYVKYVNTGEGINPGTVNGISTFTFSYQ",glycan array binding signal (z-score),[1],-0.31
same,glycan array binding signal (z-score),[2],-0.289
same,glycan array binding signal (z-score),Man(a1-2)Man(a1-3)Man,-0.302
same,glycan array binding signal (z-score),[3],-0.307
same,glycan array binding signal (z-score),[4],-0.312
same,glycan array binding signal (z-score),[5],-0.315
same,glycan array binding signal (z-score),[6],-0.309
same,glycan array binding signal (z-score),Man(a1-3)[Man(a1-6)]Man,-0.309
same,glycan array binding signal (z-score),[7],-0.148
same,glycan array binding signal (z-score),[8],-0.311
same,glycan array binding signal (z-score),[9],-0.265
same,glycan array binding signal (z-score),Man(b1-4)GlcNAc,-0.315
same,glycan array binding signal (z-score),Neu5Ac(a2-3)Gal,-0.277
same,glycan array binding signal (z-score),[10],-0.308
same,glycan array binding signal (z-score),[11],-0.313
same,glycan array binding signal (z-score),[12],-0.2
same,glycan array binding signal (z-score),[13],-0.312
same,glycan array binding signal (z-score),[14],-0.29
same,glycan array binding signal (z-score),[15],-0.312
same,glycan array binding signal (z-score),[16],-0.226
same,glycan array binding signal (z-score),[17],-0.312
same,glycan array binding signal (z-score),[18],-0.097
same,glycan array binding signal (z-score),[19],-0.309
same,glycan array binding signal (z-score),[20],-0.295
same,glycan array binding signal (z-score),Neu5Ac(a2-3)Gal(b1-4)Glc,-0.313
same,glycan array binding signal (z-score),[21],-0.298
same,glycan array binding signal (z-score),[22],-0.307
same,glycan array binding signal (z-score),[23],-0.245
same,glycan array binding signal (z-score),[24],-0.303
same,glycan array binding signal (z-score),[25],-0.24
same,glycan array binding signal (z-score),[26],-0.317
same,glycan array binding signal (z-score),[27],-0.317
same,glycan array binding signal (z-score),[28],-0.317
same,glycan array binding signal (z-score),[29],-0.304
